{"source": "the supplement of paper PMC11417369", "note": "± gives the standard deviation of the averaged measurements. The list shows a part of the results."}
{"test_system": "PfAP2-G AP2 domain (GST-tagged)", "assay": "gcPBM binding intensity (ln(normalized median fluorescence intensity)); higher = stronger DNA binding", "outline": "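An Agilent 4 × 180k array carrying primer-extended double-stranded 36-bp intergenic genomic probes and negative controls received GST-tagged P. falciparum DNA-binding domains expressed in E. coli, about 25 μg on average, for 1 h. The binding buffer contained 1× PBS, 1% milk, 0.2 mg/ml BSA, 0.5% salmon testes DNA and 0.03% Triton X-100. Binding intensity is the top Masliner-normalised natural-log median intensity across replicate spots of either probe orientation, read after Alexa488 anti-GST antibody staining and a 488 nm scan.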"}
{"sequence": "AAATAATACATTCGTACTACACATATATATTAAATA [XGTACX_site7806]", "gcPBM binding intensity (ln)": "11 ± 0.71"}
{"sequence": "TTTTTAGAAAAGGTTATAAAAAATTAATTGAAAAAA [GTGCAC_negctrl_site289]", "gcPBM binding intensity (ln)": "9.845 ± 0.035"}
{"sequence": "AATCAATATTATATATGTACTTATTTTCACTTTTGC [XGTACX_site1775]", "gcPBM binding intensity (ln)": "11.3 ± 0.88"}
{"sequence": "TATATATATTCTTTGTGTACTCATATAAGGGTAGAA [XGTACX_site8121]", "gcPBM binding intensity (ln)": "11.6 ± 1.1"}
{"sequence": "TTGTCATTATTATATTGTACAATAAGTATTAAAGAA [XGTACX_site1205]", "gcPBM binding intensity (ln)": "11 ± 0.55"}
{"sequence": "AACTGATATTAATTCTGTACCTATACGTTATATGTT [XGTACX_site1003]", "gcPBM binding intensity (ln)": "10.8 ± 0.54"}
{"sequence": "TATGAACATATATATTGTACAAAATTATAATTTCAA [XGTACX_site6406]", "gcPBM binding intensity (ln)": "10.7 ± 0.47"}
{"sequence": "AAGCGAATCTATATCACACACAAAAAAATCAGACTA [CACACA_site7072]", "gcPBM binding intensity (ln)": "9.97 ± 0.22"}
{"sequence": "AGTTCAGAATTGAATAGTACATAAATATAACAAAAT [XGTACX_site650]", "gcPBM binding intensity (ln)": "11 ± 0.64"}
{"sequence": "AAAAAAAAAAGACACACACACACATACACATACATA [CACACA_site7362]", "gcPBM binding intensity (ln)": "10.2 ± 0.13"}
{"sequence": "TATATATATATATATATATATATATATATAATTTGA [XGTACX_negctrl_site3]", "gcPBM binding intensity (ln)": "9.72 ± 0.52"}
{"sequence": "TTATTATATATGTTCACATAAATACATAAATATATA [GTGCAC_negctrl_site529]", "gcPBM binding intensity (ln)": "10 ± 0.32"}
{"sequence": "TTAAAAAAGTAATTAACACACAATAATGTAATGCAT [CACACA_site4176]", "gcPBM binding intensity (ln)": "9.9 ± 0.13"}
{"sequence": "AAAAATAAATATACATGTACATAATAATAATATATA [XGTACX_site8359]", "gcPBM binding intensity (ln)": "11.3 ± 0.74"}
{"sequence": "TTTGAAAAAAAATATTGTACACGTGAATAAAGTATT [XGTACX_site644]", "gcPBM binding intensity (ln)": "11.3 ± 0.91"}
{"sequence": "TTGCATCTATTTTTGAGTACACAATGAGAATAATTA [XGTACX_site7171]", "gcPBM binding intensity (ln)": "11.5 ± 0.9"}
{"sequence": "ACCCAAAATATATTCACACAAAAAATATTAAAAATA [CACACA_site5433]", "gcPBM binding intensity (ln)": "9.96 ± 0.13"}
{"sequence": "TTAGGTTATAAATACACACACAAAAGAAAAAAAAAA [CACACA_site5625]", "gcPBM binding intensity (ln)": "10.2 ± 0.27"}
{"sequence": "TAATATATATAACAAGTGCAAAAAAATATAGATATT [GTGCAC_site9625]", "gcPBM binding intensity (ln)": "10.005 ± 0.007"}
{"sequence": "AATAAACAAATAAATAAATAAACAGATAAATAAATC [CACACA_negctrl_site920]", "gcPBM binding intensity (ln)": "9.73 ± 0.11"}
{"sequence": "GAGAACATTGATACACGTACATAAGTTATAAGTATT [XGTACX_site7665]", "gcPBM binding intensity (ln)": "11.4 ± 0.82"}
{"sequence": "AAGCATCCTACTGATTGTACATATATATATATATAT [XGTACX_site2150]", "gcPBM binding intensity (ln)": "10.9 ± 0.45"}
{"sequence": "AAATATATTATATATGCATGCGCCAAGATTTATATA [TGCATGCA_site770]", "gcPBM binding intensity (ln)": "9.94 ± 0.15"}
{"sequence": "TATTTAAATTAATATTGTACATATATTTATAATATA [XGTACX_site6109]", "gcPBM binding intensity (ln)": "11.1 ± 0.71"}
{"sequence": "TTTATTTATATAATTACACACATATATACACAAATG [CACACA_site8903]", "gcPBM binding intensity (ln)": "10.2 ± 0.28"}
{"sequence": "TTGTTTTCTTTTTCTTTTCTTTTTCTTTTTTCTTTT [GTGCAC_negctrl_site629]", "gcPBM binding intensity (ln)": "9.89 ± 0.042"}
{"sequence": "TATATATATATAAAGACACACATCTATAGAATGTTA [CACACA_site2557]", "gcPBM binding intensity (ln)": "10 ± 0.31"}
{"sequence": "TATTTATATTTATACACACACACAAAAAAAAAAAAA [CACACA_site6817]", "gcPBM binding intensity (ln)": "10.1 ± 0.49"}
{"sequence": "ACATAAATATATGACACACACACATATTATATATAT [CACACA_site3065]", "gcPBM binding intensity (ln)": "10.11 ± 0.085"}
{"sequence": "CCATTACCATATAAAACACACAAACATACATACATA [CACACA_site5952]", "gcPBM binding intensity (ln)": "10.09 ± 0.057"}
{"sequence": "GTATAATTATGTGCACGTACATATTTTATTATATAT [XGTACX_site8586]", "gcPBM binding intensity (ln)": "11.5 ± 0.9"}
{"sequence": "AAAAAAAAAAAAAAAGCACACACACCGATGTGTATA [CACACA_site8224]", "gcPBM binding intensity (ln)": "10.19 ± 0.085"}
{"sequence": "TATATATATATACCTTGTACTTACATTCGCATATAA [XGTACX_site2466]", "gcPBM binding intensity (ln)": "11.3 ± 0.93"}
{"sequence": "TACCAAATTTATTCTTGTACATATATATATATATAT [XGTACX_site4832]", "gcPBM binding intensity (ln)": "10.8 ± 0.48"}
{"sequence": "TTTATGACTTGAAAAAGTACACATATATTTATGCAA [XGTACX_site5451]", "gcPBM binding intensity (ln)": "11.5 ± 0.91"}
{"sequence": "ATTATTATACACAAATGTACATGTGAATTTTTTTTC [XGTACX_site6982]", "gcPBM binding intensity (ln)": "11 ± 0.54"}
{"sequence": "AATAAGTAACAAAATACACACATATAGGTAATTATA [CACACA_site6949]", "gcPBM binding intensity (ln)": "9.99 ± 0.099"}
{"sequence": "AAAAGGAAAAATATCACACATATATATATATATATA [CACACA_site5586]", "gcPBM binding intensity (ln)": "10.1 ± 0.73"}
{"sequence": "ATATATATTTATAGGTGTACAAAATACTATTTTAGG [XGTACX_site8499]", "gcPBM binding intensity (ln)": "11.3 ± 0.82"}
{"sequence": "TTAATTCTACTTATTACACACATATTAAGCAAAAAT [CACACA_site4921]", "gcPBM binding intensity (ln)": "10.1 ± 0.26"}
{"sequence": "TTACCCATTCCCTTTACATGCAATTTGTATTAATAA [TGCATGCA_site412]", "gcPBM binding intensity (ln)": "10.1 ± 0.11"}
{"sequence": "GTACGTTAGATATATACACACATACATAATAAAGAA [CACACA_site7327]", "gcPBM binding intensity (ln)": "10.8 ± 0.28"}
{"sequence": "AAAATATATACAATATGTACATATATATATATATAT [XGTACX_site1898]", "gcPBM binding intensity (ln)": "11.2 ± 0.73"}
{"sequence": "ATATGTTCCGAAGGTTGTACACACATAGAAATATAC [XGTACX_site8227]", "gcPBM binding intensity (ln)": "11.6 ± 1"}
